# Reference: the supplement of paper PMC8728848
# Some of the results follow.
# B1: DC-ASGPR L+GEE (Homo sapiens) (protein)
# chain: MTRTYENFQYLENKVKVQGFKNGPLPLQSLLQRLRSGPCHLLLSLGLGLLLLVIICVVGFQNSKFQRDLVTLRTDFSNFTSNTVAEIQALTSQGSSLEETIASLKAEVEGFKQERQAGVSELQEHTTQKAHLGHCPHCPSVCVPVHSEMLLRVQQLVQDLKKLTCQVATLNNNGEEASTEGTCCPVNWVEHQDSCYWFSHSGMSWAEAEKYCQLKNAHLVVINSREEQNFVQKYLGSAYTWMGLSDPEGAWKWVDGTDYATGFQNWKPGQPDDWQGHGLGGGEDCAHFHPDGRWNDDVCQRPYHWVCEAGLGQTSQESH
# Key:
# Test in all cases: glycan array binding signal (z-score within array); higher = stronger binding
# Settings in all cases: glycan notation: IUPAC condensed, linker removed
# [1] = target: Neu5Ac(a2-6)Gal(b1-4)GlcNAc(b1-2)Man(a1-3)[Man(a1-6)]Man(b1-4)GlcNAc(b1-4)GlcNAc
# Outline: (§1)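 Glycan array binding is given as a within-array Z-score, which can be read as non-binding when negative. The arrays, 3228 of them, came from the Consortium for Functional Glycomics database and were retained only where the protein sequence was available. Z-scores were averaged across arrays of the same protein sequence at different concentrations or buffers and across linkers.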
# [2] = target: Neu5Ac(a2-6)Gal(b1-4)GlcNAc(b1-2)Man(a1-3)[Neu5Ac(a2-3)Gal(b1-4)GlcNAc(b1-2)Man(a1-6)]Man(b1-4)GlcNAc(b1-4)GlcNAc
# Outline: as §1
# [3] = target: Neu5Ac(a2-6)Gal(b1-4)GlcNAc(b1-2)Man(a1-3)[Neu5Ac(a2-6)Gal(b1-4)GlcNAc(b1-2)Man(a1-6)]Man(b1-4)GlcNAc(b1-4)GlcNAc
# Outline: as §1
# [4] = target: Neu5Ac(a2-6)Gal(b1-4)GlcNAc(b1-2)Man(a1-3)[Neu5Ac(a2-6)Gal(b1-4)GlcNAc(b1-2)Man(a1-6)]Man(b1-4)GlcNAc(b1-4)[Fuc(a1-6)]GlcNAc
# Outline: as §1
# [5] = target: Neu5Ac(a2-6)Gal(b1-4)GlcNAc(b1-2)Man(a1-6)Man(b1-4)GlcNAc(b1-4)GlcNAc
# Outline: as §1
# [6] = target: Neu5Ac(a2-6)Gal(b1-4)GlcNAc(b1-2)Man(a1-6)[Gal(b1-4)GlcNAc(b1-2)Man(a1-3)]Man(b1-4)GlcNAc(b1-4)GlcNAc
# Outline: as §1
# [7] = target: Neu5Ac(a2-6)Gal(b1-4)GlcNAc(b1-2)Man(a1-6)[GlcNAc(b1-2)Man(a1-3)]Man(b1-4)GlcNAc(b1-4)GlcNAc
# Outline: as §1
# [8] = target: Neu5Ac(a2-6)Gal(b1-4)GlcNAc(b1-2)Man(a1-6)[Man(a1-3)]Man(b1-4)GlcNAc(b1-4)GlcNAc
# Outline: as §1
# [9] = target: Neu5Ac(a2-6)Gal(b1-4)GlcNAc(b1-2)[Neu5Ac(a2-6)Gal(b1-4)GlcNAc(b1-4)]Man(a1-3)[GlcNAc(b1-4)][Neu5Ac(a2-6)Gal(b1-4)GlcNAc(b1-2)[Neu5Ac(a2-6)Gal(b1-4)GlcNAc(b1-6)]Man(a1-6)]Man(b1-4)GlcNAc(b1-4)GlcNAc
# Outline: as §1
# [10] = target: Neu5Ac(a2-6)Gal(b1-4)GlcNAc(b1-2)[Neu5Ac(a2-6)Gal(b1-4)GlcNAc(b1-4)]Man(a1-3)[GlcNAc(b1-4)][Neu5Ac(a2-6)Gal(b1-4)GlcNAc(b1-4)Man(a1-6)]Man(b1-4)GlcNAc(b1-4)GlcNAc
# Outline: as §1
# [11] = target: Neu5Ac(a2-6)Gal(b1-4)GlcNAc(b1-2)[Neu5Ac(a2-6)Gal(b1-4)GlcNAc(b1-6)]Man(a1-6)[Neu5Ac(a2-6)Gal(b1-4)GlcNAc(b1-2)Man(a1-3)][GlcNAc(b1-4)]Man(b1-4)GlcNAc(b1-4)GlcNAc
# Outline: as §1
# [12] = target: Neu5Ac(a2-6)Gal(b1-4)GlcNAc(b1-3)Gal(b1-3)GlcNAc
# Outline: as §1
# [13] = target: Neu5Ac(a2-6)Gal(b1-4)GlcNAc(b1-3)Gal(b1-4)GlcNAc
# Outline: as §1
# [14] = target: Neu5Ac(a2-6)Gal(b1-4)GlcNAc(b1-3)Gal(b1-4)GlcNAc(b1-2)Man(a1-3)[Neu5Ac(a2-6)Gal(b1-4)GlcNAc(b1-3)Gal(b1-4)GlcNAc(b1-2)Man(a1-6)]GalNAc
# Outline: as §1
# [15] = target: Neu5Ac(a2-6)Gal(b1-4)GlcNAc(b1-3)Gal(b1-4)GlcNAc(b1-3)Gal(b1-4)GlcNAc
# Outline: as §1
# [16] = target: Neu5Ac(a2-6)Gal(b1-4)GlcNAc(b1-3)Gal(b1-4)GlcNAc(b1-3)Gal(b1-4)GlcNAc(b1-2)Man(a1-3)[Neu5Ac(a2-6)Gal(b1-4)GlcNAc(b1-3)Gal(b1-4)GlcNAc(b1-3)Gal(b1-4)GlcNAc(b1-2)Man(a1-6)]GalNAc
# Outline: as §1
# [17] = target: Neu5Ac(a2-6)Gal(b1-4)GlcNAc(b1-3)Gal(b1-4)GlcNAc(b1-3)GalNAc
# Outline: as §1
# [18] = target: Neu5Ac(a2-6)Gal(b1-4)GlcNAc(b1-3)Gal(b1-4)GlcNAc(b1-3)[Neu5Ac(a2-6)Gal(b1-4)GlcNAc(b1-3)Gal(b1-4)GlcNAc(b1-6)]GalNAc
# Outline: as §1
# [19] = target: Neu5Ac(a2-6)Gal(b1-4)GlcNAc(b1-3)Gal(b1-4)GlcNAc(b1-6)[Gal(b1-3)]GalNAc
# Outline: as §1
# [20] = target: Neu5Ac(a2-6)Gal(b1-4)GlcNAc(b1-3)Gal(b1-4)[Fuc(a1-3)]GlcNAc(b1-3)Gal(b1-4)[Fuc(a1-3)]GlcNAc
# Outline: as §1
# [21] = target: Neu5Ac(a2-6)Gal(b1-4)GlcNAc(b1-3)GalNAc
# Outline: as §1
# [22] = target: Neu5Ac(a2-6)Gal(b1-4)GlcNAc(b1-3)[Neu5Ac(a2-6)Gal(b1-4)GlcNAc(b1-6)]GalNAc
# Outline: as §1
# [23] = target: Neu5Ac(a2-6)Gal(b1-4)GlcNAc(b1-6)GalNAc
# Outline: as §1
# [24] = target: Neu5Ac(a2-6)Gal(b1-4)GlcNAc(b1-6)[Gal(b1-3)GlcNAc(b1-3)]Gal(b1-4)Glc
# Outline: as §1
# [25] = target: Neu5Ac(a2-6)Gal(b1-4)GlcNAc(b1-6)[Gal(b1-3)]GalNAc
# Outline: as §1
# [26] = target: Neu5Ac(a2-6)Gal(b1-4)GlcNAc6S
# Outline: as §1
# [27] = target: Neu5Ac(a2-6)GalNAc
# Outline: as §1
# [28] = target: Neu5Ac(a2-6)GalNAc(b1-4)GlcNAc
# Outline: as §1
# [29] = target: Neu5Ac(a2-6)GalNAc(b1-4)GlcNAc6S
# Outline: as §1
# [30] = target: Neu5Ac(a2-6)GlcNAc(b1-4)GlcNAc
# Outline: as §1
# [31] = target: Neu5Ac(a2-6)GlcNAc(b1-4)GlcNAc(b1-4)GlcNAc
# Outline: as §1
binder,measurement,setting,value
B1,glycan array binding signal (z-score),[1],-0.127
same,glycan array binding signal (z-score),[2],0.898
same,glycan array binding signal (z-score),[3],0.009
same,glycan array binding signal (z-score),[4],-0.327
same,glycan array binding signal (z-score),[5],-0.255
same,glycan array binding signal (z-score),[6],-0.447
same,glycan array binding signal (z-score),[7],-0.328
same,glycan array binding signal (z-score),[8],-0.21
same,glycan array binding signal (z-score),[9],-0.396
same,glycan array binding signal (z-score),[10],0.835
same,glycan array binding signal (z-score),[11],-0.563
same,glycan array binding signal (z-score),[12],0.079
same,glycan array binding signal (z-score),[13],-0.842
same,glycan array binding signal (z-score),[14],0.155
same,glycan array binding signal (z-score),[15],0.635
same,glycan array binding signal (z-score),[16],0.947
same,glycan array binding signal (z-score),[17],-0.923
same,glycan array binding signal (z-score),[18],-0.018
same,glycan array binding signal (z-score),[19],-0.83
same,glycan array binding signal (z-score),[20],-0.108
same,glycan array binding signal (z-score),[21],0.583
same,glycan array binding signal (z-score),[22],-0.181
same,glycan array binding signal (z-score),[23],-0.304
same,glycan array binding signal (z-score),[24],-0.478
same,glycan array binding signal (z-score),[25],-0.373
same,glycan array binding signal (z-score),[26],0.107
same,glycan array binding signal (z-score),[27],1.65
same,glycan array binding signal (z-score),[28],0.37
same,glycan array binding signal (z-score),[29],0.772
same,glycan array binding signal (z-score),[30],0.184
same,glycan array binding signal (z-score),[31],-0.507
